Test results from US20200172473A1, “DUAL MODULATORS OF FARNESOID X RECEPTOR AND SOLUBLE EPOXIDE HYDROLASE” (JOHANN WOLFGANG GOETHE-UNIVERSITÄT FRANKFURT AM MAIN, priority 2017, published 2020).

Molecular target: T1, human FXR (Homo sapiens, UniProt Q96RI1)
T1 construct: characterized in a full-length (fl) FXR reporter gene assay in HeLa cells; expressed in transfected cells; host or cells: HeLa
T1 sequence (Q96RI1 1-486): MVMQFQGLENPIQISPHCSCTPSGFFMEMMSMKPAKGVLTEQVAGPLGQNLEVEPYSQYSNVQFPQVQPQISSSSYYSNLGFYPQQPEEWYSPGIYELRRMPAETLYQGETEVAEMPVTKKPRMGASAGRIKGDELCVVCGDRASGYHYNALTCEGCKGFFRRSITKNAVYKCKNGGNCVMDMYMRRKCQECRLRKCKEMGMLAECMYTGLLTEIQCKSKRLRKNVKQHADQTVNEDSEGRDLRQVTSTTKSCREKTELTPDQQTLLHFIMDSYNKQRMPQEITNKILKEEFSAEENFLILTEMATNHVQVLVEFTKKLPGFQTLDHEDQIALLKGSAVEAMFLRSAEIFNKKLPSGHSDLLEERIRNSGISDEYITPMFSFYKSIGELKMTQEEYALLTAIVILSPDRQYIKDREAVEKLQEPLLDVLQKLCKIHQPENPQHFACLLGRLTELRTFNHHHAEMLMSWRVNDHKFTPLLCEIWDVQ
T1 sequence (P19793 1-462 partner): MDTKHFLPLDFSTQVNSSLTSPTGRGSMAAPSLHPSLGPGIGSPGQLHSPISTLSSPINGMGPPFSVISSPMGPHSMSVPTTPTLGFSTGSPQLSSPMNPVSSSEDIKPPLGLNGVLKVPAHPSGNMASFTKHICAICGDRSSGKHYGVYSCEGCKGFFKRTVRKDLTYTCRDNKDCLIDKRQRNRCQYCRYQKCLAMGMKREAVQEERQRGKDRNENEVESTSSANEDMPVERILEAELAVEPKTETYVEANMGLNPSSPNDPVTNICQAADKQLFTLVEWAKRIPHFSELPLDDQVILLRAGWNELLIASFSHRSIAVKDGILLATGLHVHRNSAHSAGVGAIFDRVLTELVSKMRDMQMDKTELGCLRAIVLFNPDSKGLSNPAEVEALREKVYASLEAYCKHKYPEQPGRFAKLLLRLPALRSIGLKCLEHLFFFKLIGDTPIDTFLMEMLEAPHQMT
Test: full-length FXR reporter gene (transactivation) assay in HeLa cells
Format: cell-based
From the text: This assay is based on a reporter construct containing a firefly luciferase under the control of the FXR response element from bile salt export protein (BSEP). FXR and its hetero dimer partner retinoid X receptor (RXR) as expression constructs under the control of a CMV promoter as well as a constitutively expressed renilla luciferase (SV40 promoter) for normalization and toxicity control were co-transfected. […] The sEH inhibitory potency of the test compounds was quantified in a fluorescence-based assay using recombinant enzyme and the fluorogenic sEH substrate PHOME^37 that is hydrolyzed to a fluorescent 6-methoxynaphtaldehyde by sEH. […]
Assay procedure: HeLa cells were grown in DMEM high glucose supplemented with 10% FCS, sodium pyruvate (1 mM), penicillin (100 U/mL) and streptomycin (100 μg/mL) at 37° C. and 5% CO2. […] Luminescence was measured with a Tecan Infinite M200 luminometer (Tecan Deutschland GmbH, Crailsheim, Germany). […] EC50 and standard error of the mean values were calculated with the mean relative activation values of at least three independent experiments by SigmaPlot 10.0 (Systat Software GmbH, Erkrath, Germany) using a four parameter logistic regression.

## CC(C)(C)c1ccc(C(=O)NCc2ccc(NS(C)(=O)=O)cc2Cl)cc1 [compound 57, 4-(tert-Butyl)-N-(2-chloro-4-(methylsulfonamido)benzyl)benzamide]
HeLa, read-out: FXR activation max. rel. activation (converted)
  Emax: 35%
full-length FXR reporter gene assay, HeLa cells, read-out: FXR activation EC50
  EC50: 20.4 ± 4.2 nM
